“Also recorded” adds a separate entry of the source. A number of entries come with more than one value. Only these are listed. No rule for the calls is given here. The source may hold further records. Results that share an entry differ for a reason that is not stated; dose, time, organism, isomer or construct need not be as stated for each record. Marks in square brackets tell the records apart. Letters hold for one entry only. Counts like (3×) stand for listed records that agree.
Test system: CCRIS mutagenicity, Ames/micronucleus/aberration tests
Test: CCRIS mutagenicity studies
[1] = Test System: AMES SALMONELLA TYPHIMURIUM, Strain/Indicator: TA98, Metabolic Activation: NONE, Method: STANDARD PLATE
[2] = Test System: AMES SALMONELLA TYPHIMURIUM, Strain/Indicator: TA100, Metabolic Activation: NONE, Method: STANDARD PLATE
[3] = Test System: AMES SALMONELLA TYPHIMURIUM, Strain/Indicator: TA98, Metabolic Activation: NONE, Method: PREINCUBATION
[4] = End Point: IN VITRO CHROMOSOMAL ABERRATIONS, Test System: CHL CELLS, Metabolic Activation: NONE
[5] = Test System: AMES SALMONELLA TYPHIMURIUM, Strain/Indicator: TA100, Metabolic Activation: NONE, Method: PREINCUBATION
[6] = End Point: In vitro chromosomal aberrations, Test System: Chinese hamster lung (CHL/IU) cells, Metabolic Activation: None

SMILES: O=C1C[C@H](O)[C@@H]2c3c(ccc(O)c31)-c1ccc(O)c3c1[C@@]2(O)CCC3=O
- mutagenic call [1]: inactive; negative [study A] and active; positive [study B]
- mutagenic call [2]: inactive; negative [study A] and active; positive [study B]

SMILES: C1O[C@@H]1[C@H]1CO1
- mutagenic call (End Point: IN VIVO MICRONUCLEUS, Test System: BONE MARROW POLYCHROMATIC ERYTHROCYTES, Species: RAT, Strain/Sex: SPRAGUE-DAWLEY/MALE, Route: IP INJECTION (ONE DOSE)): active; positive; also recorded: inactive; negative; also recorded: inactive; negative; significant increase occurred at 30 mg/kg with 48 hr treatment

SMILES: COc1cc(NC(C)CCCN)c2ncccc2c1 (configuration not stated)
- mutagenic call [2]: inactive; negative [study A] and active; positive [study B]

SMILES: O=C1C=Cc2ccccc2C1=O
- mutagenic call [3]: active; positive [study A] and inactive; negative [study B] and inactive; negative [study C]

SMILES: CSc1cc(SC)c(N)c(C)c1N
- mutagenic call (Test System: AMES SALMONELLA TYPHIMURIUM, Strain/Indicator: TA100, Metabolic Activation: RAT, LIVER, S-9, AROCLOR 1254, Method: STANDARD PLATE): active; positive [study A] and inactive; negative [study B]

SMILES: c1cnc2c(c1)ccc1c2ccc2cccnc21
- mutagenic call (Test System: AMES SALMONELLA TYPHIMURIUM, Strain/Indicator: TA100, Metabolic Activation: BACULOVIRUS-TRANSFECTED INSECT CELL MICROSOMES, Method: PREINCUBATION): inactive; negative for strain expressing cyp2e1; also recorded: active; positive for strain expressing cyp1a2 and cyp2a6

SMILES: O=[N+]([O-])c1cc(Cl)ccc1Cl
- mutagenic call [4]: inactive; negative; authors report equivocal results for ploidy changes at the highest dos; also recorded: inactive; negative
- mutagenic call [5]: inactive; negative [study A] and active; positive [study B]

SMILES: CCS(=O)(=O)CCn1c([N+](=O)[O-])cnc1C
- mutagenic call [1]: inactive; negative and active; positive
- mutagenic call (Test System: AMES SALMONELLA TYPHIMURIUM, Strain/Indicator: TA100(NR), Metabolic Activation: NONE, Method: STANDARD PLATE): inactive; negative and active; positive

SMILES: [Cl][Hg][Cl]
- mutagenic call (End Point: IN VITRO CHROMOSOMAL ABERRATIONS, Test System: HUMAN PERIPHERAL LYMPHOCYTES, Metabolic Activation: NONE): active; positive (structural changes); statistically significant at 0.1 and 1000 ug leve; also recorded: active; positive (structural changes)

SMILES: O=[N+]([O-])c1cccc2ccccc12
- mutagenic call (Test System: E. COLI, Strain/Indicator: WP2 UVRA, Metabolic Activation: HAMSTER, LIVER, S-9, Method: STANDARD PLATE): inactive; negative (2×) and active; positive

SMILES: CN=C=O
- mutagenic call [5]: inactive; negative [study A] and active; positive [study B]
- mutagenic call (Test System: AMES SALMONELLA TYPHIMURIUM, Strain/Indicator: TA104, Metabolic Activation: NONE, Method: PREINCUBATION): inactive; negative [study A] and active; positive [study B]
- mutagenic call (Test System: MOUSE LYMPHOMA, Strain/Indicator: L5178Y (TK+/TK-), Metabolic Activation: NONE, Method: SUSPENSION/PLATE): active; positive [study A]; also recorded: active; positive. reevaluation of results: positive [study B]

SMILES: CC1CO1 (configuration not stated)
- mutagenic call (End Point: IN VITRO CHROMOSOMAL ABERRATIONS, Test System: CHO CELLS, Metabolic Activation: RAT, LIVER, S-9, AROCLOR 1254): active; positive; weak response and active; positive

SMILES: O=[N+]([O-])CCO
- mutagenic call (Test System: AMES SALMONELLA TYPHIMURIUM, Strain/Indicator: TA98, Metabolic Activation: HAMSTER, LIVER, S-9, AROCLOR 1254 (30%), Method: PREINCUBATION): active; positive and inactive; negative
- mutagenic call [3]: active; positive and inactive; negative
- mutagenic call (Test System: AMES SALMONELLA TYPHIMURIUM, Strain/Indicator: TA98, Metabolic Activation: RAT, LIVER, S-9, AROCLOR 1254 (30%), Method: PREINCUBATION): active; positive and inactive; negative

SMILES: O=Cc1ccccc1
- mutagenic call [6]: active; positive (structural changes and ploidy) (2×); also recorded: active; positive (structural changes)

SMILES: O=[N+]([O-])c1cccc(O)c1
- mutagenic call [3]: active; positive [study A] and inactive; negative [study B] and active; positive [study C]
- mutagenic call [5]: active; positive [study A] and inactive; negative [study B] and inactive; negative [study C]

SMILES: CC(C)(c1ccc(O)cc1)c1ccc(O)cc1
- mutagenic call (End Point: IN VITRO CHROMOSOMAL ABERRATIONS, Test System: CHO CELLS, Metabolic Activation: NONE): active; positive [study A] and inactive; negative [study B]
- mutagenic call (End Point: In vivo chromosomal aberrations, Test System: Bone marrow cells, Species: Mouse, Strain/Sex: Swiss/Male, female, Route: Oral): active; positive (structural changes (gaps)); also recorded: active; positive (structural changes)

SMILES: O=C(O)C(Br)Br
- mutagenic call [3]: active; positive [study A] and inactive; negative [study B] and inactive; negative [study C]

SMILES: C=Cc1ccccn1
- mutagenic call [6]: active; positive (structural changes). toxicity at 0.12 mg/ml; also recorded: active; positive (structural changes and ploidy). weak structural change response is not; also recorded: active; positive (structural changes). weak ploidy response is not dose related
- mutagenic call (Test System: E. coli, Strain/Indicator: WP2uvrA/pKM101, Metabolic Activation: None, Method: Preincubation): active; positive and inactive; negative

SMILES: Oc1ccc(Cl)cc1Cc1cc(Cl)ccc1O
- mutagenic call (Test System: AMES SALMONELLA TYPHIMURIUM, Strain/Indicator: TA100, Metabolic Activation: HAMSTER, LIVER, S-9, AROCLOR 1254 (30%), Method: PREINCUBATION): inactive; negative [3 to 166 µg/plate] and active; positive [3.3 to 200 µg/plate]
- mutagenic call (Test System: AMES SALMONELLA TYPHIMURIUM, Strain/Indicator: TA100, Metabolic Activation: RAT, LIVER, S-9, AROCLOR 1254 (30%), Method: PREINCUBATION): inactive; negative [1 to 100 µg/plate] and active; positive [10 to 200 µg/plate]

SMILES: NC(=S)NNC(N)=S
- mutagenic call (End Point: IN VITRO CHROMOSOMAL ABERRATIONS, Test System: CHINESE HAMSTER OVARY CELLS, Metabolic Activation: NONE): active; positive and inactive; negative

SMILES: Nc1cc(N)cc(C(=O)O)c1
- mutagenic call [4]: active; positive (structural changes) and inactive; negative

SMILES: Oc1cc(Cl)c(Cl)c(Cl)c1
- mutagenic call (End Point: IN VITRO CHROMOSOMAL ABERRATIONS, Test System: CHINESE HAMSTER LUNG CELLS (CHL), Metabolic Activation: NONE): inactive; negative; also recorded: inactive; negative; authors describe results as equivocal

SMILES: CCOP(=S)(OCC)SCCSCC
- mutagenic call (Test System: Chinese hamster ovary cells, Strain/Indicator: CHO-K1-BH4 (HGPRT), Metabolic Activation: None, Method: Cells exposed for 5 hr): inactive; negative. (test material partially doluble at highest dose.); also recorded: inactive; negative. (ca dept of pesticide regulation reviewer described as equivocal. muta
- mutagenic call (Test System: Chinese hamster ovary cells, Strain/Indicator: CHO-K1-BH4 (HGPRT), Metabolic Activation: S-9, Method: Cells exposed for 5 hr): inactive; negative. (test material partially doluble at highest dose.); also recorded: inactive; negative. (ca dept of pesticide regulation reviewer described as equivocal. muta

SMILES: CCOS(=O)(=O)OCC
- mutagenic call [4]: active; positive (structural and ploidy changes); also recorded: active; positive (structural changes)

SMILES: ClCC(Cl)CCl
- mutagenic call (Test System: AMES SALMONELLA TYPHIMURIUM, Strain/Indicator: TA98, Metabolic Activation: RAT, LIVER, S-9, AROCLOR 1254 (10%), Method: PREINCUBATION): inactive; negative and active; positive

SMILES: O=C1OC(O)C(C(Cl)Cl)=C1Cl (configuration not stated)
- mutagenic call (Test System: CHINESE HAMSTER OVARY, Strain/Indicator: CHO (NA/K ATPASE)/OUABAIN, Metabolic Activation: NONE): active; positive [1 to 3 µg/mL] and active; positive [10 to 30 µg/mL] and inactive; negative [10 to 30 µg/mL]

SMILES: C[C@@H](CN1CC(=O)NC(=O)C1)N1CC(=O)NC(=O)C1
- mutagenic call (Test System: Mouse lymphoma, Strain/Indicator: L5178Y (tk+/tk-), Metabolic Activation: None, Method: Suspension/plate): active; inconclusive (previous evaluation positive); also recorded: active; positive
- mutagenic call (Test System: Mouse lymphoma, Strain/Indicator: L5178Y (tk+/tk-), Metabolic Activation: Rat, Liver, S-9, Aroclor 1254, Method: Suspension/plate): inactive; inconclusive (previous evaluation negative); also recorded: active; positive

SMILES: CC(C)Br
- mutagenic call [5]: active; positive [study A] and inactive; negative [study B]
- mutagenic call (Test System: AMES SALMONELLA TYPHIMURIUM, Strain/Indicator: TA100, Metabolic Activation: RAT LIVER S-9, PHENOBARBITAL AND BETA-NAPHTHOFLAVONE, Method: PREINCUBATION): active; positive and inactive; negative
- mutagenic call (Test System: E.COLI, Strain/Indicator: WP2UVRA, Metabolic Activation: NONE, Method: PREINCUBATION): active; positive and inactive; negative
- mutagenic call (Test System: E.COLI, Strain/Indicator: WP2UVRA, Metabolic Activation: RAT LIVER S-9, PHENOBARBITAL AND BETA-NAPHTHOFLAVONE, Method: PREINCUBATION): inactive; negative and active; positive

SMILES: [Cl][Cr]([Cl])[Cl]
- mutagenic call (Test System: MOUSE LYMPHOMA CELLS, Strain/Indicator: L5178Y TK+/-, Metabolic Activation: NONE, Method: TFT RESISTANCE): inactive; negative and active; positive
- mutagenic call (Test System: MOUSE LYMPHOMA CELLS, Strain/Indicator: L5178Y TK+/-, Metabolic Activation: RAT, LIVER, S-9, AROCLOR 1254, Method: TFT RESISTANCE): inactive; negative and active; positive

SMILES: COc1cccc2c1C(=O)c1c(O)c3c(c(O)c1C2=O)C[C@@](O)(C(C)=O)C[C@@H]3O[C@H]1C[C@H](N)[C@H](O)[C@H](C)O1
- mutagenic call (Test System: AMES SALMONELLA TYPHIMURIUM, Strain/Indicator: TA1537, Metabolic Activation: NONE, Method: STANDARD PLATE): inactive; negative [study A] and active; positive [study B]

Reference: PubChem BioAssay AID1259407 (Chemical Carcinogenesis Research Information System (CCRIS), 2018)
